SMILES strings stand for the structures. Among all 310,000 compounds or so, about 14,000 (4.5%) showed an effect of 50% or more. The effect is printed as a negative number. The list shows a part of the results.
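Note: peak tail current of the secondary pulse compared with the same well before compound.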

For this assay, the target named is human ether-à-go-go-related gene (hERG) potassium channel (human, UniProt Q12809). Briefly: primary screen, population patch clamp on CHO cells stably expressing hERG.
Chain of human ether-à-go-go-related gene (hERG) potassium channel (Q12809 whole entry, looked up): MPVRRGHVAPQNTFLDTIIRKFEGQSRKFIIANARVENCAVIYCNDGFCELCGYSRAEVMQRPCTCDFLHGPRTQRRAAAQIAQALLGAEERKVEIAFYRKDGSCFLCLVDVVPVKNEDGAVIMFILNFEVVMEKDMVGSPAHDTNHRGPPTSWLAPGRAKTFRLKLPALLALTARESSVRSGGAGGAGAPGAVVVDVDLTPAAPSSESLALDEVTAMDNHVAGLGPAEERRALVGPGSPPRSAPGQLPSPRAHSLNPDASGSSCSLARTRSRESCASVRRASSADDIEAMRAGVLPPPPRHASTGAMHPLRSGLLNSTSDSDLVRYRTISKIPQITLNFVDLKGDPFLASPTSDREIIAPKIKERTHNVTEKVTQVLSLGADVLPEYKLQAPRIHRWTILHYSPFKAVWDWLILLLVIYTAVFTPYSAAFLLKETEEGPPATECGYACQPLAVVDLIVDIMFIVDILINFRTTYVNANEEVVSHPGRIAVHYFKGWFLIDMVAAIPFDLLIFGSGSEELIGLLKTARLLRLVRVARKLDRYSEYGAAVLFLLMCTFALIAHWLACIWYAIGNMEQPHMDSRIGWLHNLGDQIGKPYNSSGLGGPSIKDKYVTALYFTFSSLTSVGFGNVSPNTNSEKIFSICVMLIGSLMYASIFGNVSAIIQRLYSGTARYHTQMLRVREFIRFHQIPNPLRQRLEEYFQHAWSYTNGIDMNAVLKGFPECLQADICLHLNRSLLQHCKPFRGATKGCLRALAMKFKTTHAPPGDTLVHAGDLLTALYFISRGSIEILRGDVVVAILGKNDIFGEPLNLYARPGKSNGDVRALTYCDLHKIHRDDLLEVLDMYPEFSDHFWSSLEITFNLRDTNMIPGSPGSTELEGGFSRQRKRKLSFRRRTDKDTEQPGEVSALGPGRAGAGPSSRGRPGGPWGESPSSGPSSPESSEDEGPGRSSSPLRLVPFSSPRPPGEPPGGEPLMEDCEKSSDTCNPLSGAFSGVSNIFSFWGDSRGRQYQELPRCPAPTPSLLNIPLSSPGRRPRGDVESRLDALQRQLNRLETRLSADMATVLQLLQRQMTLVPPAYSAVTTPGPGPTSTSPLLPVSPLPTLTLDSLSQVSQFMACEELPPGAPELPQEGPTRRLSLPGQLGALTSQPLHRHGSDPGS
Regarding `COCCCNS(=O)(=O)c1ccc(Cl)c(C(F)(F)F)c1`, the “hERG current change (%, negative = inhibition) at 10uM” value is -8.69%.
On to `CCCn1c(SCC(=O)Nc2cccc(S(=O)(=O)N(C)C)c2)nc2ccccc2c1=O`, for which the “hERG current change (%, negative = inhibition) at 10uM” value was -39.3%.
Take `CC(C)c1ccc(NC(=O)C(c2ccc3c(c2)OCO3)N2CCN(C(=O)c3ccco3)CC2)cc1` (stereo not shown): the “hERG current change (%, negative = inhibition) at 10uM” value is listed as -25%.
Next, `O=C(Cc1ccc(Cl)cc1Cl)Nc1ccc(OC(F)F)c(Cl)c1`: 8%; `CCCCCCCCN=C1NC(=O)CS1`: -3.06%.
Next, `Cc1cc(C)c(C#N)c(SCC(=O)OC2CCCCC2)n1`: 9.27%.
Take `CC(=O)c1ccc(N2CCN(C(=O)c3ccc4ccccc4n3)CC2)cc1`: the “hERG current change (%, negative = inhibition) at 10uM” value is on record as -43.1%.
With `COC(=O)C(O)(c1ccc(NC(=O)c2ccco2)c(OC)c1)C(F)(F)F` (stereo not shown), the “hERG current change (%, negative = inhibition) at 10uM” value was -6.24%.
Next, `O=C(NCCc1csc(-c2cccnc2)n1)c1cccc2ccccc12`: -14.9%; `O=C(N/N=C(\c1ccccc1)c1cccnc1)C(O)(c1ccccc1)c1ccccc1`: -46.6%.
On to `O=C(Nc1nccs1)C1CCN(S(=O)(=O)c2cccnc2)CC1`, for which the “hERG current change (%, negative = inhibition) at 10uM” value is listed as -8.55%.
With `Cc1ccccc1CCNC(=O)C1CCCN(c2cnccn2)C1` (stereo not shown), the “hERG current change (%, negative = inhibition) at 10uM” value is -0.76%.
Consider `O=C(OCCN1C(=O)c2ccccc2C1=O)c1cc(S(=O)(=O)N2CCOCC2)ccc1Cl`, for which the “hERG current change (%, negative = inhibition) at 10uM” value is given as -22.5%.
On to `CN(C)N=Nc1ccc(S(=O)(=O)/N=C(\[O-])c2ccccc2)cc1.[K+]`, for which the “hERG current change (%, negative = inhibition) at 10uM” value turned out to be 14.6%.
For `COc1ccc(/C=C2\CCCC3C2=NN(C(=O)c2scnc2C)C3c2ccc(OC)c(OC)c2)cc1OC` (stereo not shown), the “hERG current change (%, negative = inhibition) at 10uM” value turned out to be 10.6%.
As for `N#Cc1ccccc1NC(=O)CNc1ccc(Cl)c(C(F)(F)F)c1`, the figure is -5.09%.
For the molecule `N#Cc1c(NC(=O)CSc2n[nH]c(N)n2)oc(-c2ccccc2)c1-c1ccccc1`, the “hERG current change (%, negative = inhibition) at 10uM” value is recorded as -12.7%.
In the case of `O=C1Nc2ccc(Cl)cc2C(=O)C1(F)c1ccccc1` (stereo not shown), the “hERG current change (%, negative = inhibition) at 10uM” value is -4.92%.
Regarding `C=CCOc1ccc2oc(=O)cc(C)c2c1`, the “hERG current change (%, negative = inhibition) at 10uM” value is listed as -1.62%.
On to `COc1ccc(CCNC(=O)c2cc(-c3cccs3)on2)cc1OC`, for which the “hERG current change (%, negative = inhibition) at 10uM” value is on record as -0.839%.
Next, `CC(C)N1C(=O)C2C(c3ccccc3O)NC(C)(C(=O)O)C2C1=O` (stereo not shown): -1.22%.
As for `O=C(OCCOc1ccccc1)c1cc(S(=O)(=O)N2CCOCC2)ccc1Cl`, the figure is -15.6%; as for `CC(C)OC(=O)CSc1nc2c(c(C3CC=CCC3)c1C#N)CCC2` (stereo not shown), 7.7%; as for `COc1ccc2cc(C3CC(c4ccco4)=NN3C(=O)CCC(=O)O)c(Cl)nc2c1` (stereo not shown), 18.9%.
Take `Cc1cnc(C(=O)Oc2ccc(-c3ccccc3)cc2)cn1`: the “hERG current change (%, negative = inhibition) at 10uM” value came to 16.8%.
Turning to `CC#CCN1c2ccccc2[C@]23C[C@@H](C(=O)OC)N(C(=O)NC(C)(C)C)C2=NC(C(=O)OC)=C(C(=O)OC)[C@H]13`, the “hERG current change (%, negative = inhibition) at 10uM” value was 17.3%.
For the molecule `O=C(Nc1ccc(-c2csc(-c3ccccc3)n2)cc1)c1ccccc1`, the “hERG current change (%, negative = inhibition) at 10uM” value was found to be 16.9%.
In the case of `CCCN1C(=O)C2(OCCO2)c2cc(Cl)ccc21`, the “hERG current change (%, negative = inhibition) at 10uM” value turned out to be 15.3%.
Next, `O=C(COC(=O)/C=C/c1cccc(Br)c1)NC1CC1`: -2.84%.
Next, `O=C(N/N=C/c1ccc(OC(=O)c2cccc(Br)c2)cc1)c1cccnc1`: 11.4%; `O=C(CSc1ccc(-c2ccco2)nn1)NCc1ccc(F)cc1`: -21.2%; `COc1ccc(CC(=O)Nc2sc(Cc3ccccc3)c(C)c2C(N)=O)cc1`: -5.13%.
On to `O=C(NC1CCCCC1)C(c1ccc2ncccc2c1)N(Cc1ccco1)C(=O)c1ccc2c(c1)OCCO2` (stereo not shown), for which the “hERG current change (%, negative = inhibition) at 10uM” value is recorded as -45.1%.
For the molecule `Cc1cccc(CC2CC(=O)N(c3nc4ccccc4s3)C2=O)c1` (stereo not shown), the “hERG current change (%, negative = inhibition) at 10uM” value amounted to 11.4%.
As to `Cc1onc(C(=O)N2CCC(Cc3ccccc3)CC2)c1[N+](=O)[O-]`, the “hERG current change (%, negative = inhibition) at 10uM” value came out at 5.61%.
In the case of `O=c1oc2cc(Oc3ccc(C(F)(F)F)cc3[N+](=O)[O-])ccc2c2c1CCCC2`, the “hERG current change (%, negative = inhibition) at 10uM” value is listed as 0.417%.
Turning to `Cn1cccc1/C=N/NC(=O)c1ccc(OC(F)(F)C(F)F)cc1`, the “hERG current change (%, negative = inhibition) at 10uM” value is -3.78%.
Next, `CCOC(=O)N1CCC(N(C(=O)Nc2ccccc2)C(C)CC)CC1` (stereo not shown): -1.48%; `Cc1n[nH]c(C)c1CN(C)C(=O)C1CCC(=O)N(CC2CCCCC2)C1` (stereo not shown): 2.14%; `O=S(=O)(Nc1ccccn1)c1ccc(Oc2ccccc2)cc1`: -37.5%.
For `CN(C)S(=O)(=O)c1ccc(C(=O)NCc2ccco2)cc1`, the “hERG current change (%, negative = inhibition) at 10uM” value was determined as 1.98%.
On to `COCCn1c(=NC(=O)CCS(=O)(=O)c2ccccc2)sc2cc(C(=O)OC)ccc21`, for which the “hERG current change (%, negative = inhibition) at 10uM” value came to 14.5%.
Regarding `CCOc1cccc(C(=O)Nc2nnc(-c3ccco3)s2)c1`, the “hERG current change (%, negative = inhibition) at 10uM” value was -2.82%.
`O=c1oc2ccccc2n1Cc1ccccc1F`: the “hERG current change (%, negative = inhibition) at 10uM” value worked out at 7.76%.
Take `O=C(CC1C(=O)NCCN1Cc1ccccc1C(F)(F)F)NCCc1ccccn1` (stereo not shown): the “hERG current change (%, negative = inhibition) at 10uM” value turned out to be 9.92%.
On to `CN(c1ccc(C(=O)NCCSC(C)(C)C)cc1)S(C)(=O)=O`, for which the “hERG current change (%, negative = inhibition) at 10uM” value turned out to be 5.55%.
On to `COc1ccccc1OC(C)C(=O)NNC(=S)NC1CCCC1` (stereo not shown), for which the “hERG current change (%, negative = inhibition) at 10uM” value amounted to 7.59%.
In the case of `COc1cc(/C=N/N(C)C)cc(Br)c1O.O=P(O)(O)O`, the “hERG current change (%, negative = inhibition) at 10uM” value was determined as 22.9%.
On to `CC(=O)Nc1ccc(S(=O)(=O)N(C)CC(=O)N/N=C/c2ccc(C(=O)O)cc2)cc1`, for which the “hERG current change (%, negative = inhibition) at 10uM” value is reported as 23.7%.
As for `Cc1csc(NC(=O)CCc2c(C)nc3cc(-c4cccc(F)c4)nn3c2C)n1`, the figure is -17.3%; as for `CNC(=O)c1c(NC(=O)c2cccc(N3C(=O)CCC3=O)c2)sc2c1CCC2`, 11.4%; as for `CCOc1ccc(N2C(=O)Nc3ccccc3C2(O)C(=O)NCc2ccc(C)cc2)cc1` (stereo not shown), 19.6%.
In the case of `CCOC(=O)C(CC(=O)O)=C(c1ccccc1)c1ccccc1`, the “hERG current change (%, negative = inhibition) at 10uM” value is reported as 17.9%.
Take `O=c1[nH]nc(Cc2ccc3ccccc3n2)c2ccccc12`: the “hERG current change (%, negative = inhibition) at 10uM” value was 1.36%.
Take `COc1ccc(C(C(=O)NC2CCCCC2)N(CC2CCCO2)C(=O)C2COc3ccccc3O2)cc1OC` (stereo not shown): the “hERG current change (%, negative = inhibition) at 10uM” value is given as -4.43%.

Source of the values: article PMC4336329 (PLoS ONE, 2015).
